First the molecules themselves.
T1: TRAF2, Q12933
T1 chain: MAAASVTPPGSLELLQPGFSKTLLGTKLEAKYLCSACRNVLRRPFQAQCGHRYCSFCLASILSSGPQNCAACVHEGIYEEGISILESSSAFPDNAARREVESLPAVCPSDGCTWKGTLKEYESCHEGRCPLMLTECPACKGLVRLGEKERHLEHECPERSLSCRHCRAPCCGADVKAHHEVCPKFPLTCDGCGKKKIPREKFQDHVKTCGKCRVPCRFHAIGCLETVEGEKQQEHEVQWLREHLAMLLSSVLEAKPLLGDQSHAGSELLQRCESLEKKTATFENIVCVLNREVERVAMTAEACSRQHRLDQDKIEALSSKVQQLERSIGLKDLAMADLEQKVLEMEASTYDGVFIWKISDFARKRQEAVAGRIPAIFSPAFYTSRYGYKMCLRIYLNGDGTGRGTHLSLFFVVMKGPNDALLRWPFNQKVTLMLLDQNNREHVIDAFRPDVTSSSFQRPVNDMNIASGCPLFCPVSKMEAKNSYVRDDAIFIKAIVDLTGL

B1: traf2_out_11_155_749 (protein)
chain: EKKLELLNKTTNEITDIWDEALKEADKIAAEAKAEHPEHAAEIDAVLEASKNYSPRSRILLLKRKFEELGLEEYAKRLEELIEKAQKEANEIVKKTEEEL
B2: traf2_out_13_95_1093 (protein)
chain: SAEVAKKINEIADEMLDKSLELLEELLKIAEKKGKAVEEVKKAIDLAKYRSINEAIHLLKELAKKYPEFEKELNETIEKIEELKREAGKKVAEILKEEKE
B3: traf2_out_11_169_841 (protein)
chain: EEQAKNRAINDKALELNDEAKEKLKAHAKELAKAAGLDVADIDAIFAANKGKSFSAIAGALIAYFTSKGKADAAAAVLAKYEELRDEVNKKATAFIKSLE
B4: traf2_out_13_95_1171 (protein)
chain: SEEKTKKEREIASEAFDKMEEVATRYRDEVLALIDDPEVAALMDEVVRNMNIETLRAAAARIQAAHPEKAAEIQALADKAIAEMREIRKETTEKLNAIEE
B5: traf2_out_16_104_1398 (protein)
chain: MEERKKKAEEIIKELEAIADELQKLLNELYKLYEEVSPEKKDAVADAMVAASEARRYALEAAERARKLAEEGGDLKEAEEMLKEAKERLAAAKKELAALK
B6: traf2_out_6_156_2412 (protein)
chain: MVEEILEKALEKVEELIKELAKASEEKKIAYISKIAGTAYRALQELREAGASLEEIEAFAEEFKKRTEELLKEAGLPEDTINLVLSALNAVFDVAIAEAK
B7: traf2_out_20_38_2021 (protein)
chain: SEEEEEEKKLEELIKKAQEAYDAAEAWIAALQAAGKSVAEIAEAAKARVREKLNAAGLEEEAEELVADIDRVLDSPDALRLIARILARAETLVFQKKLQE
B8: traf2_out_6_169_2484 (protein)
chain: SEEEELRKEAERHLKRARELLELARTIYEQVKKNNDLENLDNYILALETLLSAADRHYDLAIAYLRKLGKEEEAAEVEAERARHRAEMEAMIADVKKLKE
B9: traf2_out_18_147_1809 (protein)
chain: SWREAIDKLADLSEEIRKKMDEIAKLTGKEEEMEKLRDILTSTSVSEEEKEKAVEKAKKEYKAEGKEEAVALLDEALELSKKRDEAAKEANKLINEEEAK
B10: traf2_out_20_3_2222 (protein)
chain: SELKEEIRKKLEEIRKLLEEAKPLLPPEKYEELERLLKEAEEALETDLTDALVKLSELRRLALELAQEAAAAGNEELAALLEEMAELANKAAGLVLKAIE
B11: traf2_out_13_95_1182 (protein)
chain: SEETKEKINQIADDMIAQVEAVLDAAAKAVADDPEVKAALNAIRDTAVTKGISTAIHQLTELAAANPEHKELLTAALDQIKAIRTQAGKEVAKIIKEEEE
B12: traf2_out_14_166_1286 (protein)
chain: MTPEEIARIREIVDKLEPLNDKAVAEAEAILEKNKDKLSPEDLAKANELLDIARRNIGSSAINALKEMAEIFKKAGLEEAAKKFKELAKKLEEKLSELNK
B13: traf2_out_13_95_1040 (protein)
chain: TAELAKQINAIADEMVEKSLALLDEAAAELADDPEAVAVLEEARRLAETRGISEAIHLLDEAAAADPEHAARFEALRAELEAIRREAGRKVAALIKEAQA
B14: traf2_out_18_117_1779 (protein)
chain: MRREELIRRLEEIAERLDRAASELGTVFLENYEKLTPEEKSEIMDVLAELTAVRRRALELIELIREGKIPVEEAEKELEELEKEAEEAIERAERRIKEIK
B15: traf2_out_17_162_1472 (protein)
chain: MSIEERVEELEAELKELEERAEELEKKLENLENMSKEEITDLLVEASELRRRARQLAIEFEELAPEIGEERAKELAERALEIAERLQRIANKIYKELEKK
B16: traf2_out_18_3_1914 (protein)
chain: SAEERKKVSDKIDEIVDEATARAREALARLRAEHPEVAERAAALEADLAAGAGPFGILEALAELAREAGDEERAEEIERFLREKRKELQELVDEYEKLLK
B17: traf2_out_18_3_1930 (protein)
chain: TEEERQKISDKIDEIVDEARARAEAELARAAAEYPEYAAEIDALRATLAAGGAPFGVLDALAELYEKAGDTARAAELEAWLTEKRKEMQELVDEYEKEIK
B18: traf2_out_17_162_1532 (protein)
chain: SELEERLRELEEELRELEKRLEELEKELENLENMSKEELSDLLVEASEARRRALELAEELRELRSEIGEERAEELIRRAEEIAERLQRIANKIYEELEKK
B19: traf2_out_1_156_899 (protein)
chain: SNADKQYQKLKEFLHKPEVSKLLREAAGYLADIVDILKKAEKEKAPQEVIDKLKKIEEEAKKYLSEMVSNTELTLEELKKLVEKIKELKEEAKKLYEEFK
B20: traf2_out_14_17_1295 (protein)
chain: SILEELKEIEKQAKELAKKYPELALELGQLERKARSALVLAEMYLEDKSYKPELLEALKNLEKLAKEVAKKLKPKSKEAVKELEEIEKRAREILKKVEAE
B21: traf2_out_17_178_1701 (protein)
chain: SKEEIRKKISELTDKLIDLADEYGARLLALAEAEGVLSPEELAALRAALASGSNRTLLATAEELLPRSAASPELRALLAEFRAEYRKLSKEIAEAYKEYE
B22: traf2_out_15_180_1320 (protein)
chain: MTEEELERRIELANKVADEADARLDALLAANPELSPAERAALRALRRSLVTLYMNGEYEEAAAALERAKARLSPRAAAVADELAAFIKEKVEAAKKELAA
B23: traf2_out_5_192_2333 (protein)
chain: GPEEEERKKKIEEKAKKEVEELLKKIKEALKEKSLEEAKEFGLHLTGVLIAKAKSLEELEALAEEVAKAQKKVDPEIAEILDGARTLIEGVIRAEKRLEE
B24: traf2_out_12_187_972 (protein)
chain: SVQDELIRAAREALRQALKALREEAPRDPRFQEFLERLERAAELLEKHPSVAADLAVAASLILRAVRLRRAGLPQEEIDAAAEAAREELEAVLARLEALQ
B25: traf2_out_11_169_875 (protein)
chain: KEAEFNRKLNDFALELNDKAKEELKKFALKLAKEAGLNVEEIKKIFEKNKNKSLSAVASALIKYFKSKGKEEEAEKILKKYEELKDEINKKTSEKIKELE
B26: traf2_out_18_167_1834 (protein)
chain: EEEIEKKKNELLDEMIKESEIRRAARELLEALERDPEEAEKAWAKLKEVLSDNPELQAKIAAIEKLPPEERRKAARAFAEELAEETQRKMNELWKKYEEL
B27: traf2_out_6_3_2508 (protein)
chain: EEEEERKRNEEALKEAAEMSLETIETAAKTTLKELKKAVEDPNATESDFLAYDSALNTLIKIMEEHAKLNPEEKEKAEKFIEELKKERDKLIKEWKEKRK
B28: traf2_out_11_155_744 (protein)
chain: ERRRKLLQEMNDKIMDLFEKAREEALKIVEEAAEKYPEHKEELEKLIEKTKGFSYRSFILEMIRKFEELGLEEEAAKLKELLEKTQKEANEIVQKTEKEL
B29: traf2_out_20_3_2266 (protein)
chain: EELLKKYEEELEKAKKILEEIIKESDPETAKKLEEALKLLEESKKVSPTDALVLLGEAKRIVRELAEEARKAGNEELAAKLEEAADEINKAMGYLLKIIE

The results in this text go back to the supplement of paper PMC12632987.

The full ranking holds about 1,800 sequences; the median of “median log2 fold change of GCK-ALFA target abundance (FLAG IP / Myc IP barcode read proportion)” is about 0.14, and the lowest 2% start at about -0.84. The list shows a part of the results.

The experiment addresses T1, TRAF2, Q12933. The experiment is described as follows: median log2 fold change of GCK-ALFA target abundance (FLAG IP / Myc IP barcode read proportion) (log2 ratio); each designed protein is fused to an ALFA-tag nanobody in HEK293 cells to bring the named protein to FLAG-tagged glucokinase (GCK); Myc marks an untargeted standard; higher = target protein stabilised (more abundant). The note with it: target protein: 3xFLAG-MCP-GCK-ALFA reporter; HEK293 landing pad (RPLP). In outline:
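The readout is target abundance, the per-binder median log2 ratio of FLAG to Myc barcode read proportions. It came from HEK293 landing-pad cells carrying a recombined ALFA-nanobody-fused binder library, induced with 2 μg mL^−1 doxycycline and transfected with a plasmid for a FLAG-tagged target and a Myc-tagged standard. After 48 h, lysates were immunoprecipitated with anti-FLAG and anti-Myc, and circular RNA barcodes were reverse transcribed, amplified and sequenced. Each barcode needed a proportion of at least 10^−7 in both replicates and each binder at least 3 barcodes per replicate, a pseudocount of 10^−6 was added, and the replicates were pooled.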
As for B1, the “median log2 fold change” value came out at 0.554.
On to B2, for which the “median log2 fold change” value came to 0.00881.
As to B3, the “median log2 fold change” value was -0.215.
Regarding B4, the “median log2 fold change” value was -0.0714.
B5: the “median log2 fold change” value came to 0.451.
Consider B6, for which the “median log2 fold change” value was 0.261.
B7: the “median log2 fold change” value was 0.274.
B8: the “median log2 fold change” value was -0.181.
Turning to B9, the “median log2 fold change” value came out at 0.0738.
Regarding B10, the “median log2 fold change” value is -0.0477.
Take B11: the “median log2 fold change” value was -0.0403.
For B12, the “median log2 fold change” value is 0.173.
With B13, the “median log2 fold change” value is -0.662.
Take B14: the “median log2 fold change” value was determined as 0.00992.
Turning to B15, the “median log2 fold change” value amounted to 0.26.
For B16, the “median log2 fold change” value was found to be 0.282.
B17: the “median log2 fold change” value is 0.141.
The same measure for B18: 0.0409.
B19: the “median log2 fold change” value is -0.247.
For the molecule B20, the “median log2 fold change” value was 0.266.
As for B21, the figure is 0.0696; as for B22, 0.018; as for B23, 0.167.
As to B24, the “median log2 fold change” value stood at 0.148.
For B25, the “median log2 fold change” value is -0.0661.
On to B26, for which the “median log2 fold change” value was determined as 0.204.
Regarding B27, the “median log2 fold change” value was -0.238.
B28: the “median log2 fold change” value was 0.235.
The same measure for B29: 0.464.
